Experimental data from PubChem BioAssay AID686979 (National Center for Advancing Translational Sciences (NCATS), 2013).
The campaign covered roughly 420,000 compounds. About 50,000 (12%) were called active. Inconclusive results, whose numbers are uncertain, are shown with a selection of clear calls. Calls come from the whole dose curve; as a rule, active = well fitted inhibition curve with a large enough effect; inconclusive = small, poorly fitted or top-dose-only effect; inactive = flat fitted curve, though single readings scatter. No potency is given beside an inconclusive call; the fits are too rough.

Assay: qHTS for Inhibitors of human tyrosyl-DNA phosphodiesterase 1 (TDP1): qHTS in cells in presence of CPT; note: nearly all actives have a fitted effect of over 55% in size
Conditions: chicken DT40 Tdp1-/-;hTDP1 cells + 20 nM CPT, ATP luminescence, 48 h; activity change, negative = growth inhibition: at 46.2 µM (top of the series)
Procedure, shortened: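 Cell growth measured by CellTiter-Glo luminescence after a minimum 48 h, 37 C compound exposure with 20 nM CPT in Tdp1-knockout DT40 cells stably expressing hTDP1, seeded 400/well; qHTS titration format.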
% is set by controls: 0 for no effect and ±100 for the full control effect; potency is the fitted concentration of half-maximal effect; tags give direction and shape of the fitted curve.

Question: With `CCOCCCn1c(SCC(=O)NCc2ccco2)nc2c(sc3ccccc32)c1=O` as the compound, how does the Potency read?
Answer: inconclusive [inhibitor, single point]

Question: For `CCOC(=O)c1c(C)nc2sc3c(=O)n(-c4ccc(OC)cc4)nnc3c2c1-c1ccc(OC)cc1`, which Potency is on record?
Answer: inconclusive [inhibitor, partial curve, poor fit]

Question: With `O=C(NCc1ccccc1F)C1CCCN1S(=O)(=O)c1ccc(F)cc1` (stereo unspecified) as the compound, how does the Potency read?
Answer: inconclusive [inhibitor, single point]

Question: Which Potency does the source give for `CCOC(=O)c1[nH]c2ccc(C)cc2c1N=CN(CC)CC` here?
Answer: inactive

Question: With `COc1ccc(N=C2CC(C)(C)CC(=O)/C2=C(/O)c2ccccc2)cc1` as the compound, how does the Potency read?
Answer: inactive

Question: With `OC[C@@H]1CN(Cc2cccnc2)C[C@H](n2cnc3c(N4CCN(c5ccccc5)CC4)ncnc32)O1` as the compound, how does the Potency read?
Answer: inconclusive [inhibitor, single point]

Question: With `O=C(NCC(O)c1ccccc1)c1ccc(Cl)c(S(=O)(=O)N2CCCCC2)c1` (stereo unspecified) as the compound, how does the Potency read?
Answer: inconclusive [inhibitor, single point]

Question: Which Potency does the source give for `O=C(COc1ccccc1-c1ccccc1)N/N=C/c1ccccn1` here?
Answer: active: 23.1 µM

Question: Which Potency does the source give for `CC1(C)Cc2c(sc(NC(=O)C(=O)N3CCOCC3)c2C#N)CO1` here?
Answer: active: 20.6 µM

Question: Which Potency does the source give for `COC(=O)CN(Cc1ccccc1)S(=O)(=O)c1ccc(OC)c(OC)c1` here?
Answer: inactive

Question: Which Potency does the source give for `COc1ccc(/C=C2\SC(=O)N(CC(=O)Nc3cccnc3)C2=O)cc1OC` here?
Answer: inconclusive [inhibitor, single point]

Question: Which Potency does the source give for `COc1ccc(OC(F)(F)F)cc1CC1(C)C(=O)Nc2cccc(Cl)c21` (stereo unspecified) here?
Answer: inconclusive [inhibitor, single point]

Question: Which Potency does the source give for `COc1ccc(OC)c(C(=O)/C=C/c2ccccc2C(F)(F)F)c1` here?
Answer: active: 25.9 µM

Question: With `Cc1ccc(-c2nc3c(c(SCC(=O)N4CCCC4)n2)COC(C)(C)C3)cc1` as the compound, how does the Potency read?
Answer: inconclusive [inhibitor, single point]

Question: For `COc1ccc(-c2csc3ncnc(N4CCN(c5cccc(Cl)c5)CC4)c23)cc1`, which Potency is on record?
Answer: inconclusive [inhibitor, single point]

Question: For `CCOc1ccc(-c2nnc(SCC(=O)NCc3ccccc3)o2)cc1`, which Potency is on record?
Answer: inconclusive [inhibitor, single point]

Question: For `Cc1ccc(S(=O)(=O)Nc2cc(Cl)c(O)c3ncccc23)cc1`, which Potency is on record?
Answer: active: 2.31 µM

Question: For `COc1ccc(C(=O)CSc2nnc3n2CCCN3C(=O)Nc2ccccc2)cc1`, which Potency is on record?
Answer: inconclusive [inhibitor, single point]

Question: For `O=C1CN(C(=O)c2ccc(S(=O)(=O)N3CCCC3)cc2)C(c2ccccc2)c2cc(Br)ccc2N1` (stereo unspecified), which Potency is on record?
Answer: active: 14.6 µM

Question: Which Potency does the source give for `CCOC(=O)c1c(C)n(-c2ccc(OC)cc2)c2ccc(O)c(CN(C)C)c12` here?
Answer: active: 25.9 µM

Question: For `CC(C)N(Cc1ccccc1)C(=O)C1CCN(c2ncnc3c2nc2n3CCCCC2)CC1`, which Potency is on record?
Answer: inconclusive [inhibitor, single point]

Question: Which Potency does the source give for `CCCCc1ccc(CC2S/C(=C(\C#N)C(=O)N3CCOCC3)N(c3ccccc3)C2=O)cc1` (stereo unspecified) here?
Answer: inconclusive [inhibitor, full curve, poor fit]

Question: Which Potency does the source give for `Cc1c(NC(=O)c2cc3ccccc3o2)c(=O)n(-c2ccccc2)n1C` here?
Answer: inactive

Question: Which Potency does the source give for `Cc1c(CCOC(=O)C23CC4(C)CC(C)(CC(C)(C4)C2)C3)sc[n+]1CC(=O)c1ccccc1` here?
Answer: inconclusive [inhibitor, single point]

Question: Which Potency does the source give for `Cc1nnc(N2CCC(C(=O)NCCc3ccccc3)CC2)c2nn(-c3ccc(Cl)cc3)c(C)c12` here?
Answer: active: 14.6 µM

Question: With `COc1cccc(CN(C(=O)c2cccs2)C2CCS(=O)(=O)C2)c1` (stereo unspecified) as the compound, how does the activity change, negative = growth inhibition read?
Answer: inconclusive: -30.4% [inhibitor]

Question: For `CCc1nc2ccc(C(=O)Nc3cccc(NS(C)(=O)=O)c3)cn2c1N(CC)Cc1cccc(Br)c1`, which Potency is on record?
Answer: inconclusive [inhibitor, single point]

Question: For `O=C(N/N=C/c1ccc(O)cc1O)c1ccc(NC(=O)C2CCCCC2)cc1`, which Potency is on record?
Answer: active: 6.51 µM

Question: For `Cc1cccc(N2CC(C(=O)OCC(=O)c3c(N)n(CC(C)C)c(=O)n(C)c3=O)CC2=O)c1C` (stereo unspecified), which Potency is on record?
Answer: inconclusive [inhibitor, single point]

Question: For `O=S(=O)(Nc1ccccc1N1CCOCC1)c1ccc(F)c(Cl)c1`, which Potency is on record?
Answer: inconclusive [inhibitor, single point]

Question: Which Potency does the source give for `CCOC(=O)CSc1nc(C)c2cc(C)c(C)cc2n1` here?
Answer: inconclusive [inhibitor, single point]

Question: For `CC(N)c1csc(Nc2cc(Oc3ccccc3)ncn2)n1` (stereo unspecified), which Potency is on record?
Answer: inconclusive [inhibitor, single point]

Question: Which Potency does the source give for `CC(C)(C)C(=O)C1=C(O)C(=O)N(c2ccccc2)C1c1ccccc1` (stereo unspecified) here?
Answer: inconclusive [inhibitor, partial curve, poor fit]

Question: Which Potency does the source give for `CCCCc1cc(=O)oc2c(C)c(OCC(=O)N3C[C@H]4C[C@@H](C3)c3cccc(=O)n3C4)ccc12` here?
Answer: inconclusive [inhibitor, single point]

Question: With `CCOC(=O)Nc1ccccc1N1C(=O)c2ccccc2C1=O` as the compound, how does the Potency read?
Answer: inactive

Question: Which Potency does the source give for `COc1ccc(OC)c(S(=O)(=O)N2CCCC(C(=O)NCc3cccnc3)C2)c1` (stereo unspecified) here?
Answer: inactive

Question: Which Potency does the source give for `CCOC(=O)Cn1c(-c2cccnc2)nc(-c2ccccc2)c1-c1ccccc1` here?
Answer: inconclusive [inhibitor, partial curve]

Question: Which Potency does the source give for `Cc1ccccc1NC(=O)CN1C(=O)S/C(=C\c2ccc(-c3cc(C(=O)O)ccc3C)o2)C1=O` here?
Answer: inactive

Question: Which Potency does the source give for `CCn1c(C(=O)N2CCCC(C(=O)N3CCN(c4cc(C)ccc4C)CC3)C2)cc2sccc21` (stereo unspecified) here?
Answer: inconclusive [inhibitor, single point]

Question: Which Potency does the source give for `CN(C)S(=O)(=O)c1cccc(NC(=O)c2cc(-c3cccs3)nn2-c2ccccc2)c1` here?
Answer: inconclusive [inhibitor, single point]

Question: Which Potency does the source give for `C=C1C(=O)C23C(O)C1CCC2C12CCCC(C)(COC(C)=O)C1C(O)C3(O)OC2` (stereo unspecified) here?
Answer: active: 1.03 µM

Question: For `CCN(CC)c1ccc(NC(=O)c2sc3nc4c(cc3c2N)CN(C)CC4)cc1`, which Potency is on record?
Answer: inconclusive [inhibitor, single point]

Question: With `CCOc1cc(CNCc2cccs2)cc(Br)c1OC` as the compound, how does the Potency read?
Answer: inconclusive [inhibitor, partial curve]

Question: For `Cc1ccc(CCNC(=O)CCS(=O)(=O)c2cc3c(cc2C)NC(=O)CO3)cc1`, which Potency is on record?
Answer: inactive

Question: With `COc1ccccc1N(CC(=O)N/N=C(\C)c1ccccc1O)S(=O)(=O)c1ccc(C)cc1` as the compound, how does the Potency read?
Answer: inactive

Question: With `O=C(CCN1C(=O)S/C(=C\c2ccc(F)cc2)C1=O)Nc1ccc(C(=O)O)c(O)c1` as the compound, how does the Potency read?
Answer: inconclusive [inhibitor, single point]

Question: With `CC1(C)Cc2c(c(-c3ccco3)[nH]c(=O)c2C#N)CS1` as the compound, how does the Potency read?
Answer: inconclusive [inhibitor, partial curve]

Question: With `CC[C@@H](NC(=O)[C@@H](Cc1ccccc1)NC(=O)CC[C@H]1O[C@@H](n2ccc(=O)[nH]c2=O)[C@H](O)[C@@H]1O)c1ccccc1` as the compound, how does the Potency read?
Answer: inactive

Question: Which Potency does the source give for `COc1ccc(N/C=C/c2nc(SC)nnc2C)cc1` here?
Answer: inconclusive [inhibitor, partial curve, poor fit]

Question: Which Potency does the source give for `CN(C(=O)CCS(=O)(=O)c1cc2c(cc1Cl)NC(=O)CO2)C1CCCCC1` here?
Answer: inconclusive [inhibitor, full curve, poor fit]

Question: For `O=C1C=C(c2ccc(C(=O)O)c(Cl)c2)C[C@@H](c2ccc3c(c2)OCO3)C1`, which Potency is on record?
Answer: inactive

Question: For `Cc1cccc(C(O)C(O)c2cccc(C)n2)n1` (stereo unspecified), which Potency is on record?
Answer: inactive

Question: Which Potency does the source give for `O=C(Nc1ccc2nc(SCC(=O)N3CCc4ccccc43)sc2c1)c1cccc(Cl)c1` here?
Answer: inconclusive [inhibitor, single point]

Question: For `COc1cc(OC)c(OC)cc1CNc1sc2c(c1C(=O)Nc1ccccc1OC)CCC2`, which Potency is on record?
Answer: active: 20.6 µM

Question: With `CC1(C(=O)NS(=O)(=O)c2cccc(F)c2)CCN1C(=O)c1ccccc1CCc1ccccc1` (stereo unspecified) as the compound, how does the Potency read?
Answer: inconclusive [inhibitor, single point]

Question: Which Potency does the source give for `O=C(O)Cn1cc(C(=O)c2cccs2)c2ccccc21` here?
Answer: inconclusive [inhibitor, full curve, poor fit]

Question: For `COc1ccc(-c2sc3ccccc3c2C#CCCO)cc1`, which Potency is on record?
Answer: active: 25.9 µM

Question: For `O=C(Nc1nccs1)c1ccc(Br)c(S(=O)(=O)N2CCOCC2)c1`, which Potency is on record?
Answer: inactive

Question: With `O=C(NC(=S)Nc1ccc(CN2CCOCC2)cc1)c1ccc(-c2cccc(Cl)c2)o1` as the compound, how does the Potency read?
Answer: active: 16.4 µM

Question: With `CC1=C(C(=O)Nc2ccccc2)C(c2cccs2)C(C#N)=C(SCC#N)N1` (stereo unspecified) as the compound, how does the Potency read?
Answer: inconclusive [inhibitor, single point]

Question: For `O=C(c1cc(C(F)(F)F)cc(C(F)(F)F)c1)N1CCC2(CCCN(Cc3ccncc3)C2)CC1`, which Potency is on record?
Answer: inconclusive [inhibitor, single point]

Question: Which Potency does the source give for `COc1ccc(NC(=O)CSc2nc3nc(C)c(Cc4ccccc4Cl)c(C)n3n2)cc1OC` here?
Answer: inconclusive [inhibitor, single point]

Question: For `Cc1ccc(S(=O)(=O)N2CCOCC2)cc1C(=O)NC(=S)N1CC(C)CC(C)C1` (stereo unspecified), which Potency is on record?
Answer: inactive

Question: Which Potency does the source give for `CCSc1nnc(NC(=O)NC(CC)(C(F)(F)F)C(F)(F)F)s1` here?
Answer: inconclusive [inhibitor, single point]

Question: For `CC(=O)c1ccc(S(=O)(=O)NC2CC(=O)N(c3cccc(F)c3)C2)cc1` (stereo unspecified), which Potency is on record?
Answer: inconclusive [inhibitor, partial curve]

Question: With `C#CCOCCOCCOCCNc1nc(N2CCN(C(=O)Cn3cc(CC(C)O)nn3)CC2)nc(N2CCN(C(=O)Cn3cc(CC(C)O)nn3)CC2)n1` (stereo unspecified) as the compound, how does the Potency read?
Answer: inactive
